Laboratory results published in a collection of fitness landscapes (doi:10.1016/j.celrep.2020.107928).
Over roughly 81,000 sequences, “one-hybrid fitness for binding NBS DNA” has its median near -0.1; the highest 2% begin near 0.36. This is one part of the list.

B1: Caulobacter ParB omega fusion; a variant is named by its letters at X, in order, B8GW30 (parent)
chain: MESVVVGEPGMSEGRRGLGRGLSALLGEVDAAPAQAPGEQLGGSREAPIEILQRNPDQPRRTFREEDLEDLSNSIREKGVLQPILVRPSPDTAGEYQIVAGERAWRAAQRAGLKTVPIMVRELDDLAVLEIGIIENVQRADLNVLEEALSYKVLMEKFERTQENIAQTIGKSXSHVANXMRLLXLPDEVQSYLVSGELTAXHARAIAAAADPVALAKQIIEGGLSVRETEALARKAPNLSAGKSKGGRPPRVKDTDTQALESDLSSVLGLDVSIDHRGSTGTLTITYATLEQLDDLCNRLTRGI

Variants of: B1
Test: one-hybrid fitness for binding NBS DNA (the Noc-binding site; scaled: cognate 1, non-cognate 0); higher = stronger binding
Details: with NBS DNA site
Method in brief: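 In E. coli USO, a HIS3 reporter with its site placed 19 bp from the promoter was used to select Caulobacter ParB variants randomised at four specificity codons. Growth lasted 48 hours at 37°C on histidine-free M9 containing 0.1 mM IPTG and 5 mM 3-AT. Fitness was taken as the log change in variant-to-wild-type read ratio from Illumina sequencing of pre- and post-selection plasmids, rescaled between the non-cognate and cognate sites.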

| Variant | one-hybrid fitness for binding NBS DNA |
| --- | --- |
| DSDF | ≤ 0.2 |
| DHHT | ≤ 0.2 |
| NGAK | ≤ 0.2 |
| HKPG | ≤ 0.2 |
| VDIR | ≤ 0.2 |
| RLGF | ≤ 0.2 |
| IIGA | ≤ 0.2 |
| YRIC | ≤ 0.2 |
| FIVI | ≤ 0.2 |
| PGCS | ≤ 0.2 |
| AVMC | ≤ 0.2 |
| ERRG | ≤ 0.2 |
| RFYN | ≤ 0.2 |
| WFNG | ≤ 0.2 |
| WRYW | ≤ 0.2 |
| WKDS | ≤ 0.2 |
| QNGE | ≤ 0.2 |
| APPN | ≤ 0.2 |
| QFNN | ≤ 0.2 |
| VSLP | ≤ 0.2 |
| PTYT | ≤ 0.2 |
| KVDP | ≤ 0.2 |
| SFQR | 0.363 |
| MHTF | ≤ 0.2 |

| Variant | one-hybrid fitness for binding NBS DNA |
| --- | --- |
| SVKC | ≤ 0.2 |
| EYAY | ≤ 0.2 |
| SMLH | ≤ 0.2 |
| WCDC | ≤ 0.2 |
| ESGC | ≤ 0.2 |
| EHLT | ≤ 0.2 |
| AKSL | ≤ 0.2 |
| PMTH | ≤ 0.2 |
| AMLW | ≤ 0.2 |
| HMQV | ≤ 0.2 |
| RWVM | 0.413 |
| FIRS | ≤ 0.2 |
| YKFL | ≤ 0.2 |
| HPLD | ≤ 0.2 |
| GAFG | ≤ 0.2 |
| QIYT | 0.335 |
| NNKS | ≤ 0.2 |
| YVDV | ≤ 0.2 |
| PAPF | ≤ 0.2 |
| GASE | ≤ 0.2 |
| HKKQ | ≤ 0.2 |
| EMVC | ≤ 0.2 |
| NCTA | ≤ 0.2 |
| QQVR | 0.491 |

| Variant | one-hybrid fitness for binding NBS DNA |
| --- | --- |
| KGLT | ≤ 0.2 |
| SRYT | ≤ 0.2 |
| TSEF | ≤ 0.2 |
| VATC | ≤ 0.2 |
| RRSY | 0.393 |
| RVTH | ≤ 0.2 |
| IRHW | ≤ 0.2 |
| KQMG | ≤ 0.2 |
| GFVP | ≤ 0.2 |
| YKMR | ≤ 0.2 |
| NPVW | ≤ 0.2 |
| TRQK | ≤ 0.2 |
| TGLL | ≤ 0.2 |
| CPRP | ≤ 0.2 |
| TQHA | ≤ 0.2 |
| ARHQ | ≤ 0.2 |
| GSHT | ≤ 0.2 |
| QLGA | ≤ 0.2 |
| MQDG | ≤ 0.2 |
| RFKI | ≤ 0.2 |
| AKEE | ≤ 0.2 |
| PNKF | ≤ 0.2 |
| PFTN | ≤ 0.2 |
| DNDW | ≤ 0.2 |

| Variant | one-hybrid fitness for binding NBS DNA |
| --- | --- |
| TTHN | ≤ 0.2 |
| RVCS | 0.444 |
| AITT | ≤ 0.2 |
| KSKL | ≤ 0.2 |
| CCQR | ≤ 0.2 |
| NIQS | ≤ 0.2 |
| FYTL | ≤ 0.2 |
| NIRT | ≤ 0.2 |
| QHNK | ≤ 0.2 |
| RDQC | ≤ 0.2 |
| DSRA | ≤ 0.2 |
| TQPT | ≤ 0.2 |
| YIVW | ≤ 0.2 |
| NEWG | ≤ 0.2 |
| EMQT | ≤ 0.2 |
| TVKY | ≤ 0.2 |
| MHES | ≤ 0.2 |
| DACG | ≤ 0.2 |
| SKNC | ≤ 0.2 |
| RNSW | ≤ 0.2 |
| SPRD | ≤ 0.2 |
| LRVG | ≤ 0.2 |
| TGQT | ≤ 0.2 |
| NDIT | ≤ 0.2 |

| Variant | one-hybrid fitness for binding NBS DNA |
| --- | --- |
| PQQE | ≤ 0.2 |
| CGPG | ≤ 0.2 |
| TETG | ≤ 0.2 |
| RGCR | ≤ 0.2 |
| SPFQ | ≤ 0.2 |
| PENW | ≤ 0.2 |
| CDCR | ≤ 0.2 |
| STVI | ≤ 0.2 |
| TAND | ≤ 0.2 |
| MCSP | ≤ 0.2 |
| RTHC | ≤ 0.2 |
| QPVK | ≤ 0.2 |
| PWMD | ≤ 0.2 |
| YYVC | ≤ 0.2 |
| PAFL | ≤ 0.2 |
| VMGC | ≤ 0.2 |
| NYNS | ≤ 0.2 |
| DAAG | ≤ 0.2 |
| VVPD | ≤ 0.2 |
| KYQS | ≤ 0.2 |
| YVTH | ≤ 0.2 |
| ATQV | ≤ 0.2 |
| CQAY | ≤ 0.2 |
| NYRD | ≤ 0.2 |

| Variant | one-hybrid fitness for binding NBS DNA |
| --- | --- |
| YVTN | ≤ 0.2 |
| IPDV | ≤ 0.2 |
| DLST | ≤ 0.2 |
| DNDV | ≤ 0.2 |
| SIYY | ≤ 0.2 |
| RCYP | ≤ 0.2 |
| HDDR | ≤ 0.2 |
| TVQN | ≤ 0.2 |
| AFMM | ≤ 0.2 |
| MTKA | ≤ 0.2 |
| CVLE | ≤ 0.2 |
| RCRI | ≤ 0.2 |
| GMHY | ≤ 0.2 |
| EGGR | ≤ 0.2 |
| HSWS | ≤ 0.2 |
| QQGL | ≤ 0.2 |
| AKTI | ≤ 0.2 |
| TETT | ≤ 0.2 |
| EICG | ≤ 0.2 |
| FSWC | ≤ 0.2 |
| DQSN | ≤ 0.2 |
| QKKR | 1 |
| DLYE | ≤ 0.2 |
| PMPG | ≤ 0.2 |

| Variant | one-hybrid fitness for binding NBS DNA |
| --- | --- |
| RPHL | ≤ 0.2 |
| VYHR | ≤ 0.2 |
| QGGS | ≤ 0.2 |
| DTGG | ≤ 0.2 |
| KHQD | ≤ 0.2 |
| PVKA | ≤ 0.2 |
| RPNY | ≤ 0.2 |
| MTKR | 0.259 |
| LLPT | ≤ 0.2 |
| CYYP | ≤ 0.2 |
| RATF | ≤ 0.2 |
| KPCR | ≤ 0.2 |
| NCRT | ≤ 0.2 |
| LHPN | ≤ 0.2 |
| PAKN | ≤ 0.2 |
| QPRE | ≤ 0.2 |
| QYAL | ≤ 0.2 |
| GMLL | ≤ 0.2 |
| PPQC | ≤ 0.2 |
| RLPS | ≤ 0.2 |
| SQPW | ≤ 0.2 |
| PVPM | ≤ 0.2 |
| LLCI | ≤ 0.2 |
| HNHN | ≤ 0.2 |

| Variant | one-hybrid fitness for binding NBS DNA |
| --- | --- |
| KCRL | ≤ 0.2 |
| LTFR | ≤ 0.2 |
| LQHD | ≤ 0.2 |
| WMRI | ≤ 0.2 |
| HSMY | ≤ 0.2 |
| TFFG | ≤ 0.2 |
| TTSQ | ≤ 0.2 |
| DRQY | ≤ 0.2 |
| HDLG | ≤ 0.2 |
| GSVG | ≤ 0.2 |
| DTTM | ≤ 0.2 |
| TAVW | ≤ 0.2 |
| HGNG | ≤ 0.2 |
| ATKT | ≤ 0.2 |
| FSTE | ≤ 0.2 |
| RIMA | ≤ 0.2 |
| IYMT | ≤ 0.2 |
| VSKV | ≤ 0.2 |
| SVTW | ≤ 0.2 |
| ASWR | ≤ 0.2 |
| CCHG | ≤ 0.2 |
| RLKP | ≤ 0.2 |
| KRCN | ≤ 0.2 |
| HPLR | ≤ 0.2 |

| Variant | one-hybrid fitness for binding NBS DNA |
| --- | --- |
| HTTG | ≤ 0.2 |
| WVPV | ≤ 0.2 |
| CHVR | ≤ 0.2 |
| HRVP | ≤ 0.2 |
| PTNL | ≤ 0.2 |
| SDGY | ≤ 0.2 |
| PVKS | ≤ 0.2 |
| WDTY | ≤ 0.2 |
| RASP | ≤ 0.2 |
| RATD | ≤ 0.2 |
| THYV | ≤ 0.2 |
| ATPC | ≤ 0.2 |
| YYTI | ≤ 0.2 |
| PHYM | ≤ 0.2 |
| HRRH | ≤ 0.2 |
| NNPV | ≤ 0.2 |
| YPEL | ≤ 0.2 |
| PEPH | ≤ 0.2 |
| RYTK | ≤ 0.2 |
| KKGS | ≤ 0.2 |
| RQFI | ≤ 0.2 |
| FKHM | ≤ 0.2 |
| HIIR | ≤ 0.2 |
| PFHY | ≤ 0.2 |

| Variant | one-hybrid fitness for binding NBS DNA |
| --- | --- |
| ACDK | ≤ 0.2 |
| LEKF | ≤ 0.2 |
| QFAS | ≤ 0.2 |
| VDMR | ≤ 0.2 |
| PCGY | ≤ 0.2 |
| GSSC | ≤ 0.2 |
| DWLR | ≤ 0.2 |
| EITM | ≤ 0.2 |
| VSEC | ≤ 0.2 |
| TAGA | ≤ 0.2 |
| WKRC | ≤ 0.2 |
| HKAA | ≤ 0.2 |
| RKRW | ≤ 0.2 |
| DYWG | ≤ 0.2 |
| SFRA | ≤ 0.2 |
| PNCA | ≤ 0.2 |
| KTVM | ≤ 0.2 |
| TEHL | ≤ 0.2 |
| QAKS | 0.618 |
| CSPA | ≤ 0.2 |
| TDLR | ≤ 0.2 |
| DDNI | ≤ 0.2 |
| NTSA | ≤ 0.2 |
| DFRR | ≤ 0.2 |

| Variant | one-hybrid fitness for binding NBS DNA |
| --- | --- |
| YVYG | ≤ 0.2 |
| HMCW | ≤ 0.2 |
| ANFC | ≤ 0.2 |
| QFNV | ≤ 0.2 |
| TMAD | ≤ 0.2 |
| GCRG | ≤ 0.2 |
| MWGR | ≤ 0.2 |
| QCNG | ≤ 0.2 |
| LPSN | ≤ 0.2 |
| HTYL | ≤ 0.2 |
| QPDY | ≤ 0.2 |
| YLEF | ≤ 0.2 |
| PDAY | ≤ 0.2 |
| LSCF | ≤ 0.2 |
| QSQL | ≤ 0.2 |
| CAGS | ≤ 0.2 |
| AVKF | ≤ 0.2 |
| CDPV | ≤ 0.2 |
| RREG | ≤ 0.2 |
| IKKT | ≤ 0.2 |
| CKPA | ≤ 0.2 |
| MVPF | ≤ 0.2 |
| LTVF | ≤ 0.2 |
| PFYV | ≤ 0.2 |

| Variant | one-hybrid fitness for binding NBS DNA |
| --- | --- |
| TRRS | 0.38 |
| HYKS | ≤ 0.2 |
| VMWR | ≤ 0.2 |
| TTGL | ≤ 0.2 |
| ETNN | ≤ 0.2 |
| SCHG | ≤ 0.2 |
| STMV | ≤ 0.2 |
| KRHC | ≤ 0.2 |
| TAPW | ≤ 0.2 |
| RCWI | ≤ 0.2 |
| IAKK | ≤ 0.2 |
| SRSW | ≤ 0.2 |
| MTHD | ≤ 0.2 |
| DGNV | ≤ 0.2 |
| FNRH | ≤ 0.2 |
| LVVI | ≤ 0.2 |
| FREG | ≤ 0.2 |
| SPES | ≤ 0.2 |
| SDLR | ≤ 0.2 |
| NCPG | ≤ 0.2 |
| TVAS | ≤ 0.2 |
| SVTK | ≤ 0.2 |
| PGSA | ≤ 0.2 |
| TWKW | ≤ 0.2 |

| Variant | one-hybrid fitness for binding NBS DNA |
| --- | --- |
| LVRT | ≤ 0.2 |
| CNQG | ≤ 0.2 |
| PAST | ≤ 0.2 |
| WTDV | ≤ 0.2 |
| GDQE | ≤ 0.2 |
| QVTE | ≤ 0.2 |
| QACH | ≤ 0.2 |
| RWGT | ≤ 0.2 |
| VLPN | ≤ 0.2 |
| ILNT | ≤ 0.2 |
| RILI | ≤ 0.2 |
| MESR | ≤ 0.2 |
| VTRL | ≤ 0.2 |
| SENR | ≤ 0.2 |
| SRLH | ≤ 0.2 |
| HRDG | ≤ 0.2 |
| AQHG | ≤ 0.2 |
| RPCA | ≤ 0.2 |
